{"source": "PubChem BioAssay (NCATS)", "note": "Inconclusive means that the source gave no clear call. Such entries were picked first, then a sample of the others. Potencies of inconclusive entries are left out as doubtful fits. Calls of active or inactive are those of the source. The call rests on the fitted dose curve; in most records, active means well fitted cell-killing curve with a large enough effect; inconclusive means small, poorly fitted or top-dose-only effect; inactive means no such curve, though single readings can be large or run the other way. Potency means the concentration at half of the fitted maximal effect; tags describe the fitted curve by direction and shape.", "data": [{"assay": "qHTS of pediatric cancer cell lines to identify multiple opportunities for drug repurposing: Primary screen for SK-N-SH cells (AID 1347098); further: nearly all actives have a fitted effect of over 65% in size", "conditions": "SK-N-SH viability, CellTiter-Glo luminescence, 48 h; series mostly up to 57 µM", "method_in_brief": "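Cells (500-1,000/well) rested 5 h, then received compounds for 48 h; metabolically active cells were measured by CellTiter-Glo luminescence. Final concentrations spanned up to 46 µM (MIPE, 11-point) or 0.59 nM-46 µM (NPC, 8-point) in primary screens, 11-point in follow-ups.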", "values": [{"compound": "Cc1ccc(C(N)=O)cc1Nc1nccc(-c2cn(C(C)C)c3cnccc23)n1", "Potency": "inconclusive [cytotoxic, full curve]"}, {"compound": "CCOc1ccc(NC(C)=O)cc1", "Potency": "inactive"}, {"compound": "COc1cc(C=CC(=O)CC(=O)C=Cc2ccc(O)c(OC)c2)ccc1O", "Potency": "inconclusive [cytotoxic, partial curve]"}, {"compound": "CNC(=O)c1ccccc1Nc1nc(Nc2ccc(N3CCOCC3)cc2OC)ncc1Cl", "Potency": "active: 6.07 µM"}, {"compound": "Cc1cc(NC(=O)Nc2ccc(N(C)C)cc2)c2cc(F)cc(F)c2n1", "Potency": "inactive"}, {"compound": "O=C1OC2(c3ccccc31)c1cc(Br)c(O)c(Br)c1Oc1c2cc(Br)c(O)c1Br", "Potency": "inconclusive [cytotoxic, partial curve, poor fit]"}, {"compound": "CC1=C(C/C=C(\\C)CCC[C@H](C)CCC[C@H](C)CCCC(C)C)C(=O)c2ccccc2C1=O", "Potency": "inactive"}, {"compound": "CC1C(=O)OC2C(O)C34C5CC(C(C)(C)C)C36C(OC(=O)C6O)OC4(C(=O)O5)C12O", "note": "(configuration not stated)", "Potency": "inconclusive [cytotoxic, full curve]"}, {"compound": "CCC[C@H](Nc1nc(-c2ccc(NC(=O)NCC)c(OC)c2)ncc1C)c1cccnc1", "Potency": "inconclusive [cytotoxic, full curve, poor fit]"}, {"compound": "CC(CN1c2ccccc2Sc2ccccc21)N(C)C", "note": "(configuration not stated)", "Potency": "inconclusive [cytotoxic, partial curve]"}, {"compound": "COc1cc2ncnc(Nc3cccc(Br)c3)c2cc1OC", "Potency": "inconclusive [cytotoxic, full curve]"}, {"compound": "CCN1CCN(Cc2ccc(-c3cc4c(N[C@H](C)c5ccccc5)ncnc4[nH]3)cc2)CC1", "Potency": "active: 21.5 µM"}]}]}
